In PubChem BioAssay AID1508623 (National Center for Advancing Translational Sciences (NCATS), 2021):
Screen size: about 48,000 compounds; about 450 (0.94%) were called active. Another 19% or so got no clear call; they are omitted. Calls follow the shape of the dose curve; as a rule, active = well fitted inhibition curve with a large enough effect; inconclusive = small, poorly fitted or top-dose-only effect; inactive = no such curve, though single readings can be large or run the other way. The list shows a part of the results.

Assay: Primary qHTS for Identification of Small Molecule Inhibitors of Huntingtin Promoter Activity; also: nearly all actives have a fitted effect of over 50% in size
Conditions: HEK293 HTT promoter firefly luciferase reporter (activity 0% = vehicle and -100% = no light), 24 h; series mostly up to 57.5 µM; activity change, negative = inhibition: at the top concentration
Summary of the method: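 Luminescence was read after Dual-Glo reagent and a 10 min room-temperature incubation. Values were normalized to vehicle (0% activity) and zero RLU (-100% activity). Reporter HEK293 cells had been exposed to compounds (up to 57.5 uM final) for 24 h.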

Activity change, negative = inhibition, inactive:
CCN(CC)c1cc(C)c2cc(NC(=O)/C=C/c3ccccc3Cl)ccc2n1 -5.53%
COc1ccc(N2CC(NC(=O)C(=O)c3c[nH]c4ccccc34)CC2=O)cc1 (centres undefined) -9.22%
COc1ccc(CNC(=O)CC(C)n2nc(C)cc2C)cc1 (centres undefined) 0.805%
Cc1ccc(-c2nn(-c3ccc(F)cc3F)c3c2cnc2ccc(F)cc23)cc1 -2.41%
O=C(CSc1ncc2c(n1)-c1cc(Cl)ccc1N(Cc1ccccc1)S2(=O)=O)Nc1ccc(F)cc1F -28.1%
O=C(CCSCc1cccc(Cl)c1)NCc1ccccc1Cl -13.6%
CC(C)Oc1ccc(C(=O)N2CCN(c3nc4c(F)cc(F)cc4s3)CC2)cc1 1.86%
O=c1c(N2CCN(c3ccccc3)CC2)csc2ccc(Cl)cc12 -6.93%
CCN1c2ccccc2-n2cccc2C12CCN(C(=O)Nc1ccccc1Br)CC2 -19.6%
CCCCn1cc(S(=O)(=O)c2ccccc2)c(=O)c2cc(F)c(N3CCN(CCC)CC3)cc21 -12.5%
CCOCCn1ccc2c(OCC(=O)NCc3ccc(F)cc3)cccc2c1=O -1.88%
COc1ccc(C2CC(=O)N(Cc3ccccc3C)c3c2c(C)nn3-c2nc(C)cc(C)n2)c(OC)c1 (centres undefined) -20.7%
COc1ccc(NC(=O)CSC2=Nc3ccccc3C3=NC(CC(=O)NCc4ccccc4OC)C(=O)N23)cc1Cl (centres undefined) -22.3%
COc1ccc(-c2nc3c4ccccc4n(CC(=O)Nc4ccc(C(C)C)cc4)c(=O)n3n2)cc1 0%
Cc1ccccc1-n1c(SCC(=O)Nc2ccc(Cl)cc2Cl)nc(O)cc1=O -11.6%
CCc1sc(Nc2cccc(C)c2)nc1-c1cc2cccc(OC)c2oc1=O -11.6%
OCCOCCN1CCN(C2=Nc3ccccc3Sc3ccccc32)CC1 3.47%
CC(=O)N1CCc2c(sc3c2c(=O)n(-c2ccc(F)cc2)c(=O)n3Cc2cc(C)ccc2C)C1 0.34%
COc1ccc(-c2noc(-c3ccc(N4CCN(C)CC4)c([N+](=O)[O-])c3)n2)cc1 2.33%
COc1cc(C(=O)N2CCN(CCc3ccncc3)CC2)cc(OC)c1OC 4.97%
COc1cccc(-n2c(=O)c3c(C)c(C(=O)N(C)C)sc3n(Cc3cccc(C)c3)c2=O)c1 -4.23%
COc1ccc(-c2nc(C)c(CCNC(=O)C(=O)Nc3ccccc3F)s2)cc1 -1.91%
Cc1ccc(NC(=O)Cn2c(=O)n(CC3CCC(C(=O)NC(C)C)CC3)c(=O)c3sccc32)cc1 (centres undefined) -19.6%
COc1ccc(C(CNC(=O)COc2cc(C)cc(C)c2)N2CCCCC2)cc1 (centres undefined) -15.8%
COc1ccccc1-n1nc(-c2ccccc2)c2cnc3c(F)cc(F)cc3c21 -15%
CCc1cc(S(=O)(=O)O)c2cc(C(C)C)cccc1-2 -2.37%
COc1ccc(CCN2CCC(CNC(=O)c3cnn(-c4ccc(C)cc4)c3C3CCN(C(=O)OC(C)(C)C)CC3)CC2)cc1 -9.1%
Cc1ccc(N2CC(C(=O)NCCS(=O)(=O)N3CCN(c4ccccc4F)CC3)CC2=O)cc1 (centres undefined) -6.64%
CN(C)CCN(C(=O)c1ccco1)c1nc2c(F)cc(F)cc2s1 15.6%
CC1CCN(C(=O)CSc2c3c(nc4ccc(Cl)cc24)CCCC3)CC1 -26%
Cc1nc2c3ccccc3nc(NNC(=O)CCC(=O)N3CCN(c4cccc(Cl)c4)CC3)n2n1 -20.9%
Cc1cccc(NC(=O)CSc2nc3ccccc3nc2N2CCC(C)CC2)c1 -11.9%
COc1ccc(S(=O)(=O)N(CC(=O)Nc2ccc(F)c(Cl)c2)c2ccc(C)cc2)cc1OC -29.1%
COc1cccc2c1C(=O)c1c(O)c3c(c(O)c1C2=O)C[C@@](O)(C(=O)CO)C[C@@H]3O[C@H]1C[C@H](N)[C@H](O)[C@H](C)O1 -27.7%
Cn1cnc(S(=O)(=O)N2CCC(C(=O)Nc3ccc(F)cc3F)CC2)c1 -10.5%
CCOc1ccc(CNC(=O)c2ccc3c(c2)sc2nc(-c4ccccc4)cn23)cc1 28.7%
Cc1ccc(-c2noc(CNC(=O)COc3cc(C)c(Br)c(C)c3)n2)cc1 -1.15%
CCOCCc1nnc(NC(=O)C(=O)c2cc(C)n(-c3cccc(C)c3)c2C)s1 -26.8%
O=C(NC1CCCCC1)c1ccc2c(c1)N(Cc1cccc(F)c1)C(=O)c1ccccc1S2 -11.1%
O=C(NC1CCCCC1)c1ccc2c(c1)sc1nc(-c3ccc(F)cc3)cn12 -10.5%
Cc1ccc(-n2nc(C(=O)N3CCN(c4ccc(F)cc4)CC3)c(=O)n(C)c2=O)cc1 -14.7%
COc1ccc2nc(NC(=O)c3nc(S(=O)(=O)Cc4ccccc4F)ncc3Cl)sc2c1 7.5%
COc1ccc(NCc2cc3cc4c(cc3n(CC(=O)Nc3cccc(F)c3)c2=O)OCO4)cc1 -23.6%
O=C(Cn1c(=O)n(-c2ccccc2)c(=O)c2ccc(C(=O)NCc3ccc4c(c3)OCO4)cc21)Nc1ccc(F)cc1 -26.5%
COc1cc(OC)c(NC(=O)Cn2c(=O)c(C(F)(F)F)nc3ccccc32)cc1Cl -26%
CCc1cccc(NC(=O)Cn2c(=O)n(-c3ccccc3C)c(=O)c3c2c2cc(C)ccc2n3C)c1 -35.2%
CCCCc1nn2c(=O)cc(COC(=O)c3cccc(NC(=O)c4cccc(Cl)c4)c3)nc2s1 7.25%
Cc1ccc(CNC(=O)c2ccc(CS(=O)(=O)Cc3ccc(F)cc3)o2)cc1 -8.38%
COc1ccc(CCCc2nnc(SCC(=O)Nc3cccc(C)c3)o2)cc1C 9.05% [at 11.5 µM]
CCCCN(C)CCCNC(=O)Cn1ncc2c3ccccc3n(Cc3cccc(Cl)c3)c2c1=O -17.8%
Cc1cccc(N2CCN(S(=O)(=O)c3cn(C)c(C)n3)CC2)c1C -18.2%
Cc1cc(C(=O)NOCCO)c(Nc2ccc(I)cc2F)n(C)c1=O -12%
COCCNc1ccc(-c2nc(-c3ccncc3)no2)cc1[N+](=O)[O-] 30%
COc1cc(NC(=O)CSc2nc(-c3cccs3)cc(C(F)(F)F)n2)cc(OC)c1OC 2.5%
COc1cccc(-n2c(SCC(=O)N3CCc4ccccc43)nc3c([nH]c4ccccc43)c2=O)c1 -4.5%
O=C(Nc1ccc(F)cc1F)c1cccc2c1C(=O)N(C1CCCCC1)C2 -10.7%
Cc1cccc(CSc2nc3c(c(=O)[nH]2)CCC3)c1 -13.6%
CNC(=O)c1ccc2nc(CCc3ccccc3)oc2c1 46.7%
COc1ccc(S(=O)(=O)NCc2cccn2Cc2cccc(C)c2)cc1Cl 0%
